Experimental data from PubChem BioAssay AID1347417 (National Center for Advancing Translational Sciences (NCATS), 2020).
Hit rate of the full screen: of about 120,000 compounds, about 5,300 (4.4%) were called active. Inconclusive results, whose numbers are uncertain, are shown with a selection of clear calls. Calls follow the shape of the dose curve; as a rule, active = well fitted inhibition curve with a large enough effect; inconclusive = small, poorly fitted or top-dose-only effect; inactive = no such curve, though single readings can be large or run the other way. Potencies of inconclusive entries are doubtful fits and often do not repeat.

Test: qHTS Primary assay for Inhibitors of Plasmodium falciparum Dd2 growth in vitro; also: nearly all actives have a fitted effect of over 65% in size;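 as to activity, negative = inhibition: plate controls were DMSO vehicle for no effect and reference drug for full effect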
Details: P. falciparum Dd2 growth, SYBR Green, 72 h; activity, negative = inhibition: at 28.9 µM (top of the series) unless noted; series mostly up to 28.9 µM
How it was run: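 Readout: SYBR Green fluorescence, 485 nm excitation, 535 nm emission, after ~16 h lysis at 37C. Before that, Dd2-infected red cells (2.5% hematocrit) grew 72 h with compound, 29 uM top final concentration.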
Potency is read from the fitted curve at half-maximal effect; tags tell the direction and shape of the fitted curve.

| SMILES | Potency | outcome | activity, negative = inhibition |
| --- | --- | --- | --- |
| Fc1ccccc1CN1CCCN(Cc2cn(-c3ccccc3)nn2)CC1 | inconclusive: 7.08 µM [inhibitor, partial curve] | – | – |
| CC(C)NC(=O)[C@H]1CN2CCC1C[C@@H]2Cn1cc(CCO)nn1 (stereo partly drawn) | – | inactive [at 44.1 µM] | – |
| COCC(=O)N[C@@H]1CN(C(=O)NCc2ccccc2)CC[C@@H]1c1nc(C)no1 | – | inactive [at 5.79 µM] | – |
| COC[C@@H]1CN(Cc2ccc3cc[nH]c3c2)C[C@H]1c1nc(C)no1 | inconclusive: 7.08 µM [inhibitor, partial curve] | – | – |
| O=C(NC[C@H]1C[C@@H]2CCN1C[C@@H]2CN1CCN(c2ccccc2)CC1)Nc1ccsc1 | inconclusive: 20 µM [inhibitor, single point] | – | – |
| COc1ccc(C(=O)Nc2ccc(-n3nncc3-c3ccc(OC)c(OC)c3)cc2)cc1 | inconclusive: 10 µM [inhibitor, single point] | – | – |
| CCc1ccc(NC(=O)c2cc3c(=O)n(Cc4cccs4)ccc3nc2C)cc1 | active: 12.6 µM | – | – |
| COc1ccc(Cl)cc1NC(=O)CN(c1cc(C)cc(C)c1)S(=O)(=O)c1c(C)n[nH]c1C | inconclusive: 17.8 µM [inhibitor, single point] | – | – |
| CCN1c2cc(C(=O)Nc3cccc(C(C)C)c3)ccc2C(=O)N2CCCCCC21 (stereo not drawn) | – | – | inactive: -7.81% |
| CC(=O)N1CCN(C(=O)[C@@H]2Cc3cn(Cc4cc(C)on4)c4cccc(c34)[C@H](CC(C)C)N2)CC1 | inconclusive: 11.2 µM [inhibitor, single point] | – | – |
| CC1(C)[C@H](Cc2cc(COc3ccccc3)on2)C[C@@H]1NC1CCC1 | active: 11.2 µM | – | – |
| CNC(=O)c1cc2cc(-c3c(C)noc3C)nc(-c3cccc(CO)c3)c2o1 | inconclusive: 11.2 µM [inhibitor, partial curve, poor fit] | – | – |
| CNC(=O)c1cn2c(n1)CN(C(=O)c1ccccc1F)CC2 | – | – | inactive: 8.07% [at 44.1 µM] |
| O=c1c2c(n(Cc3cccnc3)n1CCc1ccccc1)CN(CC1CCOC1)CC2 (stereo not drawn) | inconclusive: 3.16 µM [inhibitor, single point] | – | – |
| CN1CCC(NC[C@H]2O[C@H](Cc3cc(-c4cccc(O)c4)on3)CC[C@@H]2O)CC1 | – | – | inactive: 3.85% [at 44.1 µM] |
| COC(=O)C(C)Sc1nnc2cc(C)c3cc(C)cc(C)c3n12 (stereo not drawn) | – | – | inconclusive: -43.9% [inhibitor] [at 0.594 µM] |
| CN1Cc2ccccc2-n2ccnc2C12CCN(C(=O)c1ccc(C(F)(F)F)cc1)CC2 | – | inactive [at 5.79 µM] | – |
| O=C(CC1CCN(C(=O)CCC2CCCCC2)C1)NCc1ccccc1 (stereo not drawn) | inconclusive: 10 µM [inhibitor, single point] | – | – |
| CC(C)c1ccc(C(=O)N2CCC(n3c(=O)[nH]c4ccccc43)CC2)cc1 | inconclusive: 12.6 µM [inhibitor, single point] | – | – |
| O=C(c1cc(F)ccc1F)N1CC(c2nnc(-c3ccncc3)o2)C2(CCOCC2)C1 (stereo not drawn) | inconclusive: 0.398 µM [inhibitor, full curve, poor fit] | – | – |
| OCCOc1ccccc1CN1CCCC(N2CCN(c3ccccc3)CC2)C1 (stereo not drawn) | inconclusive: 11.2 µM [inhibitor, single point] | – | – |

| SMILES | Potency | outcome | activity, negative = inhibition |
| --- | --- | --- | --- |
| O=C1NCc2ccccc2CC12CCN(CC1CC=CCC1)CC2 (stereo not drawn) | inconclusive: 11.2 µM [inhibitor, partial curve, poor fit] | – | – |
| COc1ccccc1CCC(=O)N1CCC2(CC1)CC(O)CCO2 (stereo not drawn) | inconclusive: 3.55 µM [inhibitor, partial curve, poor fit] | – | – |
| C[C@@H](NC(=O)c1cccnc1)c1c(-c2ccc(F)cc2)noc1C(=O)O | inconclusive: 12.6 µM [inhibitor, single point] | – | – |
| O=C(NCCc1c[nH]c2ccccc12)[C@@H]1C[C@H]2C(=O)NCCCCCCN(C(=O)c3ccco3)[C@H]2C1 | active: 1.12 µM | – | – |
| O=C(Cn1cnc2c(nc3n2CCCCC3)c1=O)Nc1ccc(F)cc1 | inconclusive: 11.2 µM [inhibitor, single point] | – | – |
| CCCN(CCC)CCCNC(=O)Cn1cnc2onc(-c3ccc(F)cc3)c2c1=O | inconclusive: 12.6 µM [inhibitor, partial curve, poor fit] | – | – |
| Cc1nn(-c2ccc(C(F)(F)F)cc2)c(C)c1[C@@H]1C=C[C@@H](NC(=O)c2cccs2)C1 | active: 2.82 µM | – | – |
| Cn1cccc1CN1CCC2(C1)C(=O)N(Cc1ccccc1)c1ccccc12 (stereo not drawn) | – | – | inactive: -2.46% |
| c1cc(CNC[C@H]2Cn3cc(-c4ccc5c(c4)OCCCO5)nc3CO2)ccn1 | inconclusive: 7.08 µM [inhibitor, partial curve, poor fit] | – | – |
| COc1ccc(C(=O)N2CCC(n3cc(-c4nc(-c5ccccc5)no4)nn3)CC2)c(C)c1 | inconclusive: 6.31 µM [inhibitor, partial curve, poor fit] | – | – |
| COc1cccc(NC(=O)CSc2nc3ccc(NC(=O)c4ccco4)cc3s2)c1 | inconclusive: 17.8 µM [inhibitor, single point] | – | – |
| CCOc1ccc(CN2C[C@@H]3C(=O)N(CCN4CCc5ccccc5C4)C(=O)[C@@H]3C2)cc1 | inconclusive: 3.98 µM [inhibitor, single point] | – | – |
| O=C(Nc1ccc2c(N3CCCCC3)ncnc2c1)c1ccc(F)c(F)c1 | active: 2 µM | – | – |
| O=C1NCCCCCCN(C(=O)CC2CCCCC2)[C@H]2C[C@H](c3nc(-c4cccnc4)no3)C[C@@H]12 | inconclusive: 1 µM [inhibitor, partial curve, poor fit] | – | – |
| COc1ccc2[nH]c(CNc3cc(C4CC(N)C4)nc(C)n3)cc2c1 (stereo not drawn) | inconclusive: 17.8 µM [inhibitor, single point] | – | – |
| Cc1ccccc1NC(=O)c1ccccc1NC(=O)c1ccccc1Cl | – | – | inactive: 9.43% |
| Cc1cc(OCCCSc2nc(-c3ccc(C(C)(C)C)cc3)nc3cc(=O)[nH]n23)ccc1Cl | inconclusive: 10 µM [inhibitor, single point] | – | – |
| COCCN1C(=O)CS(=O)(=O)C12CCN(C(=O)c1ccc(OC)c(F)c1)CC2 | – | inactive | – |
| O=C(Nc1ccccc1F)N1[C@H]2CC[C@@H]1c1cncnc1C2 | – | – | inactive: 11.1% |
| COc1ccc(C2(C(=O)N3CCC4(CCCN(C)C4=O)C3)CCCC2)cc1 (stereo not drawn) | – | – | inactive: -8.25% |
| COc1cc(C2c3c(-c4ccccc4O)n[nH]c3C(=O)N2Cc2ccncc2)ccc1O (stereo not drawn) | – | – | inactive: -4.69% |

| SMILES | Potency | outcome | activity, negative = inhibition |
| --- | --- | --- | --- |
| O=C(COc1ccccc1)N1CC(c2noc(COc3ccccc3)n2)C1 | inconclusive: 11.2 µM [inhibitor, single point] | – | – |
| CCn1cc(C(=O)N2C[C@@H](CO)[C@H](c3ccccn3)C2)cn1 | – | – | inactive: 9.22% |
| Cc1ccc(CN2CCC(c3nn(C)c(=O)n3Cc3ccccc3)CC2)o1 | inconclusive: 6.31 µM [inhibitor, partial curve, poor fit] | – | – |
| CCCCN1C(=O)CC[C@H]2CN(C(=O)Cc3c[nH]c(=O)n(C)c3=O)CC[C@H]21 | – | – | inactive: 0.602% |
| O=C(Nc1cccc(F)c1)C1CCN(C(=O)c2ncn3c2COC(c2ccc(F)cc2)C3)CC1 (stereo not drawn) | inconclusive: 4.47 µM [inhibitor, partial curve, poor fit] | – | – |
| C[S+](=O)([O-])CCn1ncc2cc(OCc3cccc(-c4cccnc4)c3)ccc21 | inconclusive: 17.8 µM [inhibitor, partial curve, poor fit] | – | – |
| COc1ccc(-n2c(=O)c3c(n2Cc2ccccc2)CN(C(=O)C2CCC(OC)CC2)CC3)cc1 (stereo not drawn) | inconclusive: 3.98 µM [inhibitor, partial curve, poor fit] | – | – |
| Cc1oc(C(O)c2ccccc2F)nc1C(=O)Nc1ccc(C(N)=O)cc1 (stereo not drawn) | inconclusive: 12.6 µM [inhibitor, single point] | – | – |
| CCc1cccc(NC(=O)Cn2c(-c3cnccn3)nc(C)c(C)c2=O)c1 | inconclusive: 0.316 µM [inhibitor, full curve, poor fit] | – | – |
| Cc1ccc(C2c3[nH]c4ccccc4c3CCN2C(=O)CSc2ccccc2)cc1 (stereo not drawn) | inconclusive: 11.2 µM [inhibitor, single point] | – | – |
| COc1ccc(CNC(=O)C2CCN(C(=O)C3CN(c4ccc(OC)cc4)C(=O)N3)C2)cc1 (stereo not drawn) | inconclusive: 20 µM [inhibitor, single point] | – | – |
| O=C(Nc1c(C(=O)N2CCN(c3ccccc3F)CC2)oc2ccccc12)c1ccc(Br)o1 | inconclusive: 17.8 µM [inhibitor, single point] | – | – |
| Oc1ccccc1-c1nc2ccc(Cl)cn2c1Nc1ccc2c(c1)OCCO2 | inconclusive: 10 µM [inhibitor, single point] | – | – |
| COc1ccc(C(=O)N2C[C@@H](Oc3cccnc3)C[C@H]2C(N)=O)cc1F | – | – | inactive: -1.06% |
| CC1(C(=O)NCc2ccsc2)CCOCC1 | – | – | inactive: 14.6% [at 44.1 µM] |
| Cc1ccc(-n2c(-c3cccc(C)c3)nc3c(cnn3-c3ccccc3)c2=O)cc1 | inconclusive: 17.8 µM [inhibitor, single point] | – | – |
| CCOc1ccccc1CN1CCC(C)(c2noc(C3CCOCC3)n2)CC1 | inconclusive: 1.41 µM [inhibitor, partial curve, poor fit] | – | – |
| CSc1cccc(NC(=O)C2CCCN(S(=O)(=O)c3ccc4c(c3)CCCN4C(C)=O)C2)c1 (stereo not drawn) | inconclusive: 17.8 µM [inhibitor, single point] | – | – |
| Cc1nc(-c2cccc(Cl)c2)n(CC(=O)NCc2ccc(F)cc2)c(=O)c1CCO | inconclusive: 0.398 µM [inhibitor, full curve, poor fit] | – | – |
| O=C(NCCCN1CCN(c2ccccc2)CC1)c1ccc2nc(CCc3ccccc3)oc2c1 | active: 7.94 µM | – | – |
| CC(Oc1ccc(Br)cc1)C(=O)N(Cc1nc(-c2ccccc2)no1)C(C)C (stereo not drawn) | inconclusive: 17.8 µM [inhibitor, single point] | – | – |
